In US11839654B2, “Combination therapy” (Eli Lilly and Company, priority 2018, dated 2023):

Columns and labels:
[1] = system: brain sections from wild type mouse that possess no human tau (background non-specific staining); test: Ex vivo target engagement: immunohistochemistry staining of control wild type mouse brain sections; type: binding; set-up: key: severe, +++; moderate, ++; mild, +; negative, −; conditions: WT control (murine) brain section
Method: (§1) Binding of exemplified anti-Tau antibody (having both HCs of SEQ ID NO.2 and both LCs of SEQ ID NO.1) to aggregated tau derived from human brains is determined through immunohistochemistry staining of formalin-fixed paraffin-embedded (FFPE) brain sections obtained from: a “normal” individual (displaying minimal tau aggregation); an AD patient (displaying severe tau aggregation and NFT formation pathology); a PD patient (displaying severe tau aggregation).
FFPE sections are de-paraffinized and rehydrated. Thereafter, antigen retrieval (using the Lab Vision PT module system, Thermo Scientific) is performed on the sections which includes heating sections in citrate buffer (Thermo Scientific, p/n. TA-250-PM1X) for 20 minutes at 100° C. then cooling the sections in dH2O. […]

[2] = system: tau aggregation in hippocampus of P301S mice; test: In vivo neutralization of tau aggregate propagation in P301S mice (PG-5 immunoreactivity); set-up: species or system mouse; conditions: for Mean % PG-5 immunoreactivity: 7.5 μg antibody injected with homogenate, four weeks post-injection, ± SEM
Method: Homogenate preps of brain stem tissue from 4.5 to 5 month old P301S mice are prepared substantially the same as described above.
Normal 10 week old female P301S mice are injected in the left hemisphere of the hippocampus with 5 μl homogenate brain prep and either: 7.5 μg exemplified anti-Tau antibody (having both HCs of SEQ ID NO.2 and both LCs of SEQ ID NO.1) (N=12); or 7.5 μg of control human IgG4 antibody (N=11). Four weeks post-injection, the mice are sacrificed and the left and right hemispheres are collected, paraffin embedded, and 6 μm serial sections are mounted on glass slides. Slides containing bregma (A−P=−2.30) are de-paraffinized, embedded tissue is rehydrated, and antigen retrieval is performed by heating slide to 100° C. for 20 min. in citrate buffer. Slides are cooled in dH2O and incubated at room temperature according to the following steps: (a) 10 min. in (0.03%) H2O2; (b) 30 min. in a 1:20 dilution of normal goat serum; (c) 60 min. in a 1:8000 dilution of PG-5 antibody (diluted in PBST)(PG-5 antibody obtained from the lab of Dr. Peter Davies, Albert Einstein College of Medicine of Yeshiva University; PG-5 antibody specifically binds serine at residue 409 of tau when phosphorylated, residue numbering based on the exemplified human tau of SEQ ID NO.13); (d) 30 min. in a 1:200 dilution of biotinylated goat anti-mouse IgG antibody (diluted in PBST); (e) 30 min. in avidin-biotin complex solution; and (f) 5 min. in 3,3′-diaminobenzidine. PBST is used for washing between the respective steps. Following the 5 min. incubation in 3,3′-diaminobenzidine, sections are counterstained with haematoxylin, then rehydrated and cover-slipped. Staining signal is measured by Scanscope AT Slide Scanner (Aperio) at 20× magnification. PG-5 immunoreactivity is quantified and expressed as a percentage using the positive pixel algorithm of Imagescope Software (v. 11.1.2.780, Aperio).

[3] = system: aggregated tau in FFPE brain sections; test: Ex vivo target engagement: immunohistochemistry staining of human FFPE brain sections; type: binding; set-up: key: severe, +++; moderate, ++; mild, +; negative, −
Method: as §1
FFPE sections are de-paraffinized and rehydrated. Thereafter, antigen retrieval (using the Lab Vision PT module system, Thermo Scientific) is performed on the sections which includes heating sections in citrate buffer (Thermo Scientific, p/n. TA-250-PM1X) for 20 minutes at 100° C. then cooling the sections in dH2O. Sections are then exposed to the following seven incubation steps (at room temp.): (1) 10 min. in 0.03% H2O2; (2) 30 min. in 1:20 dilution of normal goat serum (Vector Labs., p/n. S-1000) diluted in PBST; (3) 60 min. in exemplified anti-Tau antibody (normalized to 1 mg/ml, then diluted in PBST to a dilution of 1:4000 before incubation with sections); (4) 30 min. in rabbit anti-human IgG4 (raised against the Fc region of the exemplified antibody) at a concentration of 1.1 μg/ml in PBST; (5) 30 min. in 1:200 dilution of biotinylated goat anti-rabbit IgG (Vector Labs., p/n. BA-1000) diluted in PBST: (6) 30 min. in avidin-biotin complex solution (Vector Labs., p/n. PK-7100); (7) 5 min. in 3,3′-diaminobenzidine (Vector Labs., p/n. SK-4105). Sections are washed between each of the above 7 steps using PBST. Following the seven incubation steps above, sections are counterstained with haematoxylin, dehydrated and cover-slipped. For mouse “control” tissue sections the above protocol is modified in incubation step (3) by using a 1:8000 dilution (as opposed to a 1:4000 dilution) of exemplified anti-Tau antibody; and by replacing incubation steps (4) and (5) with a single 30 min. 1:200 dilution of biotinylated goat anti-human IgG (Vector Labs. p/n. BA-3000) in PBST. […]

[4] = target: human monomeric (e.g., native or non-aggregate) tau (Homo sapiens, UniProt P10636); test: SPR (BIACORE) binding to human monomeric tau; conditions: 25° C.
Method: (§2) Surface Plasmon Resonance (SPR) assay, measured with a BIACORE® 2000 instrument (primed with HBS-EP+ running buffer (GE Healthcare, 10 mM Hepes pH7.4+150 mM NaCl+3 mM EDTA+0.05% surfactant P20) at 25° C.), is used to measure binding of an exemplified anti-Tau antibody (having both HCs of SEQ ID NO.2 and both LCs of SEQ ID NO.1) to both human monomeric (e.g., native or non-aggregate) tau and human tau aggregates (both having the amino acid sequence as set forth in SEQ ID NO.13).
(§3) Except as noted, all reagents and materials are from BIACORE® AB (Upsala, Sweden). A CMS chip containing immobilized protein A (generated using standard NHS-EDC amine coupling) on all four flow cells (FC) is used to employ a capture methodology. Antibody samples are prepared at 0.5 μg/mL by dilution into running buffer. […]
(§4) Data of binding to tau aggregate is processed using standard double-referencing and fit to a 1:1 binding model using Biacore 2000 Evaluation software, version 4.1, to determine the association rate (kon, M^−1s^−1 units), dissociation rate (koff, s^−1 units), and Rmax (RU units). The equilibrium dissociation constant (KD) was calculated from the relationship KD=koff/kon, and is in molar units. Data of binding to monomeric tau cannot be determined accurately by SPR as described above due to rapid on- and off-rates. […]

human tau aggregates = human tau aggregates (Homo sapiens, UniProt P10636); test: SPR (BIACORE) binding to human tau aggregates; conditions: Tau Aggregate; 1:1 binding model, 25° C.
Method: as §2, §3, §4

Chain of human tau aggregates (P10636 1-441 isoform P10636-8): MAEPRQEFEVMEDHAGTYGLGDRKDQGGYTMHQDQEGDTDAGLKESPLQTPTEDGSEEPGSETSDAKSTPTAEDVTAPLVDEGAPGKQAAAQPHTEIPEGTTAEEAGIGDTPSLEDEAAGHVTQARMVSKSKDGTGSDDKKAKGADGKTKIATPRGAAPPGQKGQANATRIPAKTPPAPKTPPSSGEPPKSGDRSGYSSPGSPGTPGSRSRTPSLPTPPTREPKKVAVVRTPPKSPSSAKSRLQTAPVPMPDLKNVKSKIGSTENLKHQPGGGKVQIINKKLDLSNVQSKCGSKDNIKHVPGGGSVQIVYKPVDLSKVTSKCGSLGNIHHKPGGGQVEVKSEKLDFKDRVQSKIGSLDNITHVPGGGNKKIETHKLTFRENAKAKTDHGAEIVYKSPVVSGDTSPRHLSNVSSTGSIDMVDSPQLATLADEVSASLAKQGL
Chain of human monomeric (e.g., native or non-aggregate) tau (P10636 1-441 isoform P10636-8): as above

koff [4]: Not detectable
kon [4]: Not detectable
koff (human tau aggregates): <1e-05 M⁻¹ s⁻¹
kon (human tau aggregates): 45900 M⁻¹ s⁻¹
B1: Exemplified anti-Tau mAb: anti-Tau antibody having both HCs of SEQ ID NO.2 and both LCs of SEQ ID NO.1 (antibody)
heavy: EVQLVQSGAEVKKPGESLKISCKGSGYTFSNYWIEWVRQMPGKGLEWMGEILPGSDSIKYEKNFKGQVTISADKSISTAYLQWSSLKASDTAMYYCARRGNYVDDWGQGTLVTVSSASTKGPSVFPLAPCSRSTSESTAALGCLVKDYFPEPVTVSWNSGALTSGVHTFPAVLQSSGLYSLSSVVTVPSSSLGTKTYTCNVDHKPSNTKVDKRV[left out - human IgG4 Fc with S228P F234A L235A (EU numbers)]
light: EIVLTQSPGTLSLSPGERATLSCRSSQSLVHSNQNTYLHWYQQKPGQAPRLLIYKVDNRFSGIPDRFSGSGSGTDFTLTISRLEPEDFAVYYCSQSTLVPLTFGGGTKVEIKRTVAAPSVFIFPPSDEQLKSGTASVVCLLNNFYPREAKVQWKVDNALQSGNSQESVTEQDSKDSTYSLSSTLTLSKADYEKHKVYACEVTHQGLSSPVTKSFNRGEC
modifications: HC of exemplified anti-Tau antibody; LC of exemplified anti-Tau antibody
Severity of aggregated tau detected, semi quantitative score [1]: −
Mean % PG-5 immunoreactivity ([2]; Left Hippocampus): 2.52 ± 0.49 SEM %
Mean % PG-5 immunoreactivity ([2]; Right Hippocampus): 0.63 ± 0.13 SEM %
greater reduction in tau aggregation compared to control IgG4 antibody ([2]; left hippocampus): 60.5%
greater reduction in tau aggregation compared to control IgG4 antibody ([2]; right hippocampus): 66.5%
Severity of aggregated tau detected, semi quantitative score ([3]; Alzheimer's disease brain section): +++
Severity of aggregated tau detected, semi quantitative score ([3]; Normal control (human) brain section): +
Severity of aggregated tau detected, semi quantitative score ([3]; Pick's disease brain section): +++
